This note sets out measurements from patent publication US20190330372A1 (Novartis, published 2019).

The target in one test is T1, NOV1401 (IgG).
T1 construct: Germlined version of NOV1090, human IgG1/lambda with D265A and P329A in the Fc
The test can be described thus: solution equilibrium titration (SET), panel 'NOV1401': soluble antigen titrated against a constant amount of IgG (20 pM, Table 9); free antibody captured on plate-coated human plasma FXIa, ECL read-out; axis labelled 'hFXI pM', the example names FXIa. The method, then: (§1) Experiments were carried out in polypropylene microtiter plates and with PBS (GIBCO 14190, pH 7.0-7.2) containing 0.5% BSA and 0.02% Tween20 as assay buffer. Serial dilutions of unlabeled FXIa antigen were prepared, starting with a concentration at least 10 times higher than the expected KD. Wells without antigen were used to determine Bₘₐₓ values; wells containing only assay buffer were used to determine background. After addition of an appropriate amount of binder (antibody concentration similar to or below the expected KD, 60 μL final volume), the mixture was incubated over night at RT.
(§2) MSD plates were coated with 1 μg/mL human plasma derived FXIa (30 μL per well). After washing the plate with PBS containing 0.05% Tween 20, the equilibrated samples were transferred to the plates and incubated for 20 min. Following incubation, 30 μL per well of the MSD-Sulfo-tag labeled detection antibody (anti-Flag M2 (Sigma) 1:2,000) was added to the washed MSD plate and incubated for 30 min at RT on an Eppendorf shaker (700 rpm).
(§3) The SET method described in Example 2 was used to determine the KD for AM4 (IgG), and compared to NOV1401, the germlined version of its parental antibody NOV1090.

Another test deals with T2, AM4 (IgG).
T2 construct: Germlined version of AM3, with two amino acid changes at the N-terminus of the light chain
T2 sequence (heavy, as listed by the source, chain 1 of 2): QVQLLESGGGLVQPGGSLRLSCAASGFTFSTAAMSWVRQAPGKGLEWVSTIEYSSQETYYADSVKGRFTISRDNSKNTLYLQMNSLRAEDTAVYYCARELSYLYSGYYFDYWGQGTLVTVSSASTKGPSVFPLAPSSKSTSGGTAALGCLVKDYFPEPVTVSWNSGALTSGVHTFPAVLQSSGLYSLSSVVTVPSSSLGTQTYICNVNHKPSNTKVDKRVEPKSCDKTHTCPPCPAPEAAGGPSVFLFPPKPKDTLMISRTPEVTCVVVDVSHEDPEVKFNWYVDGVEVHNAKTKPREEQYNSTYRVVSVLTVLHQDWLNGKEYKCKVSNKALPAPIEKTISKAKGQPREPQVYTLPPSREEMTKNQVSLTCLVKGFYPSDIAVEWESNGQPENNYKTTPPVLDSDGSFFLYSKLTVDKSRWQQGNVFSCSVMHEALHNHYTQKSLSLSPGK
T2 sequence (light, as listed by the source, chain 2 of 2): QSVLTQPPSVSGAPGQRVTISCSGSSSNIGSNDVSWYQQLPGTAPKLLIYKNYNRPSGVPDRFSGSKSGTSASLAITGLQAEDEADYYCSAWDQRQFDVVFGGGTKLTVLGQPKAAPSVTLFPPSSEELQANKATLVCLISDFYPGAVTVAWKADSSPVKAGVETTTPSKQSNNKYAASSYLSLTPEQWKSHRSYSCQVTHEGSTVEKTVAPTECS
The test can be described thus: solution equilibrium titration (SET), panel 'AM4': soluble antigen titrated against a constant amount of IgG (5 pM, Table 9); free antibody captured on plate-coated human plasma FXIa, ECL read-out; axis labelled 'hFXI pM', the example names FXIa. How it is done: as §1, §2, §3

T1 sequence (VH, as listed by the source, chain 1 of 2): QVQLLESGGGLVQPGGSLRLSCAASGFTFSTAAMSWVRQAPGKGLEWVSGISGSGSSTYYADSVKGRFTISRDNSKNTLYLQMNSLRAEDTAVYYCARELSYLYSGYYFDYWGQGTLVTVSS
T1 sequence (VL, as listed by the source, chain 2 of 2): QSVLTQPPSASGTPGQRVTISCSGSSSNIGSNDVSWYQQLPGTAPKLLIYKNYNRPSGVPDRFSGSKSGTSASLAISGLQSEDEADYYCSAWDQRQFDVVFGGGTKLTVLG

B1: human plasma derived FXIa (enzyme)
chain: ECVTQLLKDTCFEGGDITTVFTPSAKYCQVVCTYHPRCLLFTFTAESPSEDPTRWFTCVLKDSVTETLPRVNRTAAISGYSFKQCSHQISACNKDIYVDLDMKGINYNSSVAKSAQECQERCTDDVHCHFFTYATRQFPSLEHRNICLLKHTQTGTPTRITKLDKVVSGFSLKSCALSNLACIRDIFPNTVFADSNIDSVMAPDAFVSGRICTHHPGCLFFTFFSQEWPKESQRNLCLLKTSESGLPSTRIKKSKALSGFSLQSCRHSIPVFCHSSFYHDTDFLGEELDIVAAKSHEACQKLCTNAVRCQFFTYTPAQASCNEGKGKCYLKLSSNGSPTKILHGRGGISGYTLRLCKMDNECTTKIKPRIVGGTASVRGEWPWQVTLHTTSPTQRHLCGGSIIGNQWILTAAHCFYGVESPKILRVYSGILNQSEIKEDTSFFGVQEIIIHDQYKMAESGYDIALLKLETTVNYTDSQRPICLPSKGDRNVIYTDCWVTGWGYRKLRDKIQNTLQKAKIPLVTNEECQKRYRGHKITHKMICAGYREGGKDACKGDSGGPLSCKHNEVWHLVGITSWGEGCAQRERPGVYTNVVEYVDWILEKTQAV
notes: The light chain is the catalytic domain, […]; also called hFXIa; human FXIa
Turning to B1, the “IC50 (read off the curve)” value is ~10 pM in the test with NOV1401 (IgG) and ~3 pM with AM4 (IgG).
